Data: the RNAGym collection of RNA variant scans (doi:10.7554/elife.90254)
Read counts are not given, so values of variants with three or more changes are uncertain.

B1: LINE1-mini (parent)
chain: GGCAGAGCUCAACACAGCGUGGCAAAGUGGCUGUGGCUAGACUGCC

Variants of: B1
Assay: self-cleavage, relative activity (ratio to wild type); higher = more cleavage; in vitro, sequencing; the parent is a self-cleaving ribozyme

Row | Variant | self-cleavage
1 | G1U G2C A25C C37A | 0.03
2 | G1U G2C C8A G17U U20A | 0.04
3 | G2A C10A G30C U43A | 0.02
4 | G2A A6C U38G | 0.03
5 | G1U G5C A14C | 0.01
6 | G1U G7C C8A C13U | 0.05
7 | G2A A4G C13A G17U U34A G36A | 0.5
8 | G1U C10A C13G A41C | 0.01
9 | G1U C18G U32G | 0
10 | G2A C8A G17A U34G | 0.21
11 | G1U G35U C46U | 0.14
12 | G2A C8A U32A C37A | 0.24
13 | G2A A4U G19U G29C U34C | 0.15
14 | G2A C8U C10A A12G C37U G40U | 0.02
15 | G1U G21U U32A C46U | 0
16 | G2A A6C C37U | 0
17 | G2A A24U G27C | 0.13
18 | G1U G2U C18A C42A | 0.01
19 | G1U G5U G7A G17C | 0.04
20 | G2A C3A G7A A16U G17C U28C G40C | 1.49
21 | G1U U9G C23A C31G | 0.05
22 | G1U U9C G17U | 0.02
23 | G1U C10U A16C G21C A24C | 0.02
24 | G2A A26G U43G | 0.06

Row | Variant | self-cleavage
25 | G2A C3U G17A G40U | 0.13
26 | G1U G7A A11G A12G C18U G35C G40A | 0
27 | G1U C13G A14U A39G U43C | 0
28 | G2A A6G U28C G33A | 0.05
29 | G2A C3A G33U C42G U43C | 0.46
30 | G2A A16U A24U G27C | 0.04
31 | G1U G19C U20C G30A G36U | 0.05
32 | G1U C10A U43A | 0.01
33 | G2A C3G G27C C42G | 0.1
34 | G1U G7U U34C C46U | 0.02
35 | G1U G21U G22U G40A | 0.05
36 | G1U G7U C13U | 0.04
37 | G2A C3U A4U G30A | 0.23
38 | G2A C10U A16C C31G U34A | 0.05
39 | G2A A14G U32G U38A | 0.04
40 | G2A A12U G21A G35U | 1.52
41 | G2A A16G A26C U38G C46U | 0.04
42 | G1U C13A G30C | 0.06
43 | G2A A14U G17A | 0.06
44 | G1U G7C G36C | 0.06
45 | G1U G35U U43G | 0.03
46 | G2A A25C G40U | 0.15
47 | G2A A6U G19C | 0.36
48 | G1U C37A A41G | 0.03

Row | Variant | self-cleavage
49 | G2A C10G A24U | 0.06
50 | G2A A4U G17A G21C A39G G44C | 0
51 | G2A A12G A14G G33A | 0.15
52 | G1U G5U C15G A25G U43C | 0
53 | G1U G2A A6G A11C A16C G35A A41U C42A | 0.02
54 | G1U G5U G7U U43A | 0.03
55 | G2A A14G A39U G40U | 0.08
56 | G1U G7A C23U C46A | 0.12
57 | G2A A11U G19A A39G | 0.03
58 | G1U G17U U20G G22A U32G C37U | 0
59 | G1U G22U A39U G44A C45U | 0.05
60 | G1U G7U C42A | 0.01
61 | G1U U9A G22A A24C C45U | 0.01
62 | G2A A12C U20A A41U C45U | 0.01
63 | G1U G29U U34C C46U | 0.01
64 | G1U G5C C46A | 0.03
65 | G1U C10G G21U | 0.07
66 | G2A A11G C37A | 0.02
67 | G2A A16U C18G G36C | 0.01
68 | G2A A4U C13A C18G G19U G29U C37A G44A | 0.14
69 | G2A A14U G19A C23A C31U U38G | 0.01
70 | G1U G2C G44A | 0.05
71 | G2A A25U G27A C31G | 0.07
72 | G1U C18A A26C U28A C31G | 0.01

Row | Variant | self-cleavage
73 | G1U G35U C45A | 0.13
74 | G1U C8A U9A C42U U43C | 0.07
75 | G1U G5A G21U C37G | 0
76 | G1U C10A G22U G40U C42U | 0.09
77 | G1U G22C C31U G35C C37A A39C A41G | 0
78 | G1U G33U C42U | 0.12
79 | G2A C3U A12U C13A G17A G22C C31A | 0.04
80 | G1U G5C A6C A25C A26U G27U U34G A39C | 0
81 | G1U G29A C42G | 0.01
82 | G1U C31G C37G | 0.01
83 | G2A A4U A6U | 0.37
84 | G2A A12C C23U G33U C42U | 0.03
85 | G2A C8U A14C G21C U32A G40U | 0.07
86 | G2A C8U A12C G33U | 0.12
87 | G1U C10U C46U | 0.52
88 | G1U C15G A26G | 0.02
89 | G1U G21U G44A C46A | 0.16
90 | G2A A14C A25C | 0.03
91 | G1U C13U U28G | 0.06
92 | G2A A4U G5C | 0.14
93 | G2A A24C G30A G40C | 0.02
94 | G1U G35A C45U | 0.1
95 | G1U G7U C13A C37U | 0.02
96 | G1U G2U C18G A24C G44A | 0.02

Row | Variant | self-cleavage
97 | G1U C13U C37U U38C | 0.01
98 | G1U C10A A14C G29U C46G | 0
99 | G1U C13U G40A | 0.03
100 | G1U C15G C45G | 0.02
101 | G2A A4U C10A G21C G30U C46G | 0.06
102 | G1U G7U G29U G33C | 0.04
103 | G2A C3A G19U C45U | 1.22
104 | G1U G5A G21U A25C | 0.01
105 | G2A C10G U28A G36U U43A | 0
106 | G2A A4C C8A A12C C46U | 0.04
107 | G1U G7U C18G | 0.04
108 | G1U G5C C15A C18G C23U G35U A39G | 0
109 | G2A C8A C23A G40U | 0.07
110 | G2A A4G C8A U20G | 0.04
111 | G1U C42U C45A | 0.06
112 | G2A C8U C13G A14U G30U C46G | 0.68
113 | G1U G22U U28G G40C | 0.32
114 | G1U C8U C37A G44U | 0
115 | G1U C18G U20A C31G | 0.01
116 | G1U C15G A39U C45U | 0.01
117 | G1U C15A G44A | 0.39
118 | G2A A11G A14C G29U | 0.01
119 | G1U G2C U9C U28C U32G | 0.03
120 | G1U C15U G29U G44U | 0.14

Row | Variant | self-cleavage
121 | G1U G2U A6U G33U G36U G40A | 0.01
122 | G1U U43C C45A | 0
123 | G2A A6G C15G A16U U20G A24C U38C A41U C46G | 0.01
124 | G1U C8G C15G | 0.02
125 | G2A A14G A25U | 0.31
126 | G2A C8A A14C | 0.2
127 | G1U U20A G35U C42U | 0.07
128 | G2A C8G A12G A14C A39G | 0.01
129 | G2A C10G A16U | 0.02
130 | G1U G5U C8A C18G C45A | 0.03
131 | G1U U9C C23U A26U G35C | 0
132 | G1U C13U A25U G29U G33U G44C | 0.05
133 | G2A A4G C23A G40A | 0.13
134 | G2A A4G G7A G21U G27U G33C C37G | 0.12
135 | G1U G22C G44U | 0.17
136 | G2A C3U C15A G17U G33C | 0.18
137 | G2A C3U C13A C18U U28C | 0.11
138 | G2A C8U A12U | 0.07
139 | G2A A4U A6C C37U U43A | 0.27
140 | G1U C15A U28G | 0.14
141 | G2A A14G C31A C45U | 0.11
142 | G2A A12C A41C | 0.04
143 | G2A A25U G44U | 0.48
144 | G2A A12C U28G | 0.03

Row | Variant | self-cleavage
145 | G2A A14G C15A A41G | 0.16
146 | G1U G2U A6U C13A C18U U28C | 0.03
147 | G2A A6C G19C C46G | 0.17
148 | G1U C8G G36U C46U | 0.03
149 | G1U U9C G36C C42G | 0.01
150 | G1U G2C G35A | 0.02
151 | G2A A4G A14C U34A | 0.39
152 | G1U C13U C15U U32G C37U | 0.02
153 | G2A C10U A16C G33U | 0.02
154 | G1U C37U U43C | 0.03
155 | G1U G5U C8A U9G U34G U43C | 0.06
156 | G1U C10U G21U C31A G40A | 0.01
157 | G2A A6G C31G G33C C37U U38C | 0.01
158 | G1U G7U C13U A39U | 0.04
159 | G1U C8U A24G | 0.11
160 | G1U G7U A11C G33C G40A | 0
161 | G2A C10U C23A A26U G35U C37G | 0.07
162 | G1U C13U A16C G17U | 0.02
163 | G1U C10G C37A A41C | 0
164 | G2A C3U G5C U28A C37U | 0.46
165 | G1U G2A C8G | 0.02
166 | G1U C8U G29A C31G A39C G44A C46U | 0.02
167 | G2A A24U G44C | 0.55
